US20250241301A1, “COMPOSITIONS AND METHODS FOR INHIBITING PATHOGEN GROWTH ON PLANTS AND IMPROVING CROP SAFETY” (priority 2024, published 2025)

Test system: potato tubers
Assay: T2H / propylene glycol vapor treatment of potato tubers, recirculating set-up, skin lesion count (Tables 5-8)
[1] = Table 6 (repeat experiment), Norland Red, T2H 0.27 mL/kg alone or in mixture, PG alone 0.27 mL/kg
[2] = Table 6 (repeat experiment), Yukon Gold, T2H 0.27 mL/kg alone or in mixture, PG alone 0.27 mL/kg
[3] = Table 7, Norland Red, T2H 0.10 mL/kg alone or in mixture, PG alone 0.10 mL/kg
[4] = Table 7, Yukon Gold, T2H 0.10 mL/kg alone or in mixture, PG alone 0.10 mL/kg

| Compound | Total Number of Lesions/5 Tubers 96 h [1] | Total Number of Lesions/5 Tubers 96 h [2] | Total Number of Lesions/5 Tubers 96 h [3] | Total Number of Lesions/5 Tubers 96 h [4] |
| --- | --- | --- | --- | --- |
| CC(O)CO (centres unmarked) [PG, propylene glycol] | 3 | 9 | 3 | 2 |
| CCC/C=C/C=O [T2H, trans-2-hexenal] | 29 | 25 | 16 | 23 |
